In all, about 310,000 compounds went through this assay and about 14,000 (4.5%) showed an effect of 50% or more. Effects have a minus sign here. Some of the results follow.
Molecular target: human ether-à-go-go-related gene (hERG) potassium channel (human, UniProt Q12809)
Assay: primary screen, population patch clamp on CHO cells stably expressing hERG
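Further: peak tail current of the secondary pulse compared with the same well before compound.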

Chain of human ether-à-go-go-related gene (hERG) potassium channel (Q12809 whole entry, looked up): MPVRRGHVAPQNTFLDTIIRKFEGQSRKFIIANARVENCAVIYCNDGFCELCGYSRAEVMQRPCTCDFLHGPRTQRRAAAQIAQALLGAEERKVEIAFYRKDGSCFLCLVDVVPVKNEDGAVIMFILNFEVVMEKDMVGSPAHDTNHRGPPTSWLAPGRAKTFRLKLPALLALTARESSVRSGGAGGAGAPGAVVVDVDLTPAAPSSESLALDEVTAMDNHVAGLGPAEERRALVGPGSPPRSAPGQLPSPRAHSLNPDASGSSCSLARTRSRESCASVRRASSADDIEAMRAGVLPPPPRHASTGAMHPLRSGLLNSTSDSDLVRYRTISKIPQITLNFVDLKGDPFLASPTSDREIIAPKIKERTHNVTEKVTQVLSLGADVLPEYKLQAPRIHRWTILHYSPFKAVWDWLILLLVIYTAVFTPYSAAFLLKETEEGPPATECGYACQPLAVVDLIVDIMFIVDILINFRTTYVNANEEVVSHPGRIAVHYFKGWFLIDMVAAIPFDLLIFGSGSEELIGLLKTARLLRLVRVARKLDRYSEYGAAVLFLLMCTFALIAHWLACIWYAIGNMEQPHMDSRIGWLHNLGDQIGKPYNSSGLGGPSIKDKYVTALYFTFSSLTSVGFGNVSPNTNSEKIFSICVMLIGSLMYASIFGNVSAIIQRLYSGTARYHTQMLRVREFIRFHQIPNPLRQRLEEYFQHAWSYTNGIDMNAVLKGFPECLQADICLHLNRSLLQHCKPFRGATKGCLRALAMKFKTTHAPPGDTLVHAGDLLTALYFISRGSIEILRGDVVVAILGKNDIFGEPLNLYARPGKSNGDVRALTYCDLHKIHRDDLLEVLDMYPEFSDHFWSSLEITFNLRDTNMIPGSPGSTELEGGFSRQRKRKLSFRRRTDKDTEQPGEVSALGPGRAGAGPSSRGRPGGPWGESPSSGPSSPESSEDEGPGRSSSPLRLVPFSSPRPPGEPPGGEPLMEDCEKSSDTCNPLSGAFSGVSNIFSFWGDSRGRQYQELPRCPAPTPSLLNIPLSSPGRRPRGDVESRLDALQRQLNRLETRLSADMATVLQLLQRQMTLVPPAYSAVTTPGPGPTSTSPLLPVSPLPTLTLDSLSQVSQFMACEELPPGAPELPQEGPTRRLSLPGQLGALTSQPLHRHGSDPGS

Compound | hERG current change (%, negative = inhibition) at 10uM [%]
Cc1ccc(NC(=O)N2CCN(C(=O)c3ccco3)CC2)cc1Cl | -2.38
COc1ccccc1NC(NC(=O)c1ccco1)C(=O)c1ccccc1 (stereo not shown) | -17.8
O=C(CSC1c2ccccc2-c2ccccc21)N/N=C/c1ccc(C(=O)O)cc1 | 14.3
CCOC(=O)c1ccc2c(c1)nc(C)n2CC | 9.95
CSCc1c(C(=O)NC2CCCc3ccccc32)oc2ccccc12 (stereo not shown) | 6.97
Cc1ccc2c(c1)nnn2C1CCN(S(=O)(=O)c2ccc(C(=O)N3CC(C)CC(C)C3)cc2)CC1 (stereo not shown) | -8.03
COC(=O)C1=C(c2cccc(OCc3ccccc3)c2)C[C@@H]2CC[C@H]1N2C(=O)NCCOc1ccccc1 | 9.99
Cc1cc(C(=O)N2CCCC(Nc3ccc(F)cc3)C2)c(C)o1 (stereo not shown) | -2.86
CC1CC(=O)N(CC(=O)Nc2ccc(Br)cc2)c2ccccc2S1(=O)=O (stereo not shown) | -11.2
CCOC(=O)Cn1c(=O)c2c(nc3n2CCCCN3c2ccc(C)cc2)n(C)c1=O | -19.5
COC(=O)[C@H](Cc1ccccc1)NC(=O)NCC1CCCO1 (stereo partly shown) | 13.1
Nc1cc(N)nc(SCC(=O)Nc2ccc(Br)cc2Cl)n1 | 7.29
COc1ccc(N2C(=O)C3C(C2=O)C(C(=O)c2ccccc2)N2CCCC32)cc1 (stereo not shown) | -26.8
CCOC(C(=O)OCCC[N+](C)(CC)CC)(c1ccccc1)c1ccccc1.COS(=O)(=O)[O-] | 6.63
C=C(C)CN(CC)C(=O)CSc1nc2ncc(Cl)cc2[nH]1 | 3.41
CCOc1ccc(CC(=O)Nc2sc(Cc3ccccc3)c(C)c2C(N)=O)cc1OCC | 0.242
Cc1c(C(=O)Nc2ccc(OC(F)(F)F)cc2)sc2nc3n(c(=O)c12)CCC3 | -8.26
CCCOC(=O)CSc1nnc(-c2cc(OC)c(OC)c(OC)c2)o1 | -6.19
O=C(Nc1cccc2c1C(=O)NC2=O)c1ccc(S(=O)(=O)N2CCCC2)cc1 | -4.47
OC(CNc1nc(-c2cccnc2)nc2ccccc12)c1ccccc1 (stereo not shown) | -36.4
COC(=O)[C@H]1CN(C(=O)c2ccccc2)C(=O)N1 | 0.278
CN(C)CCCNc1nc(-c2ccccc2)c2c(c1C#N)CC(C)(C)OC2 | -57.4
Cc1ccc(/C=N/NC(=O)c2cc(-c3ccc(C)o3)[nH]n2)cc1 | 5.08
COc1ccc(CSc2ccc(S(=O)(=O)N3CCCCC3)cn2)cc1F | 3.35
COCCCNC(=O)CS(=O)Cc1nc(-c2cccc(OC)c2)oc1C (stereo not shown) | -3.3
COc1ccc(CC(=O)N2N=C(C)CC2(O)c2cccnc2)cc1OC (stereo not shown) | -17
O=C(CNc1cccc(S(=O)(=O)N2CCCCC2)c1)Nc1ccccc1F | 10.4
CC1(C)O[C@@H]2C[C@H]3[C@@H]4CCC5=CC(=O)CC[C@]5(C)[C@@]4(F)[C@@H](O)C[C@]3(C)[C@]2(C(=O)CCl)O1 | 13.7

Compound | hERG current change (%, negative = inhibition) at 10uM [%]
O=C(O)c1ccc(Nc2nc(-c3cccnc3)cs2)cc1 | 10.5
CCCCNC(=O)NNC(=O)COc1cc(C)cc(C)c1 | 6.66
Cc1ccccc1CNS(=O)(=O)c1c(C(=O)N2CCCC2)c(C)n(C)c1C | 14.8
CN(C)S(=O)(=O)N(CC(=O)N1CCOCC1)c1ccccc1 | -5.88
COC(=O)CCCN1C(=O)c2cccc3cccc(c23)C1=O | 9.66
Cc1cc(Br)ccc1SCC(=O)OCC(=O)N1CCN(C(=O)c2ccco2)CC1 | -66.8
O=C(Cn1cc(C(=O)C2CC2)c2ccccc21)NCc1ccc2c(c1)OCO2 | 10.2
COc1ccc(Cn2c(=O)[nH]c3cc(C(=O)NCCCN4CCCC4=O)ccc3c2=O)cc1 | 0.0335
Cc1cccc(NC(=O)c2sc3nc(N)c(C#N)cc3c2N)c1 | 13.9
COc1ccc(/C=N/NC(=O)C(=O)N2CCCCCC2)cc1 | 22.2
c1cc2nncn2nc1N1CCCC1 | 2.55
CCOc1ccc(NC(=O)C2CCCN(S(=O)(=O)c3cccc4nsnc34)C2)cc1 (stereo not shown) | -2.01
COc1cccc(CN(C)C(=O)c2cccc(S(=O)(=O)N3CCN(c4ccc(F)cc4)CC3)c2)c1OC | -15.9
C=CCn1c(-c2cc3cccc(OC)c3o2)n[nH]c1=S | 20.1
CCOC(=O)c1c(/N=C/C2C(=O)NC(=S)NC2=O)sc2c1CCC2 | 13.7
CS(=O)(=O)Nc1ccc(C(=O)Nc2ccc3c(c2)OCO3)cc1 | 15.3
CCOc1ccc(CCNC(=O)C(C)n2nc(C)c3c(C)n(-c4ccccc4)nc3c2=O)cc1 (stereo not shown) | -36
Cc1cc(SCc2cc(=O)[nH]c3ccccc23)nc2ccccc12 | 16.4
C=C(C)CN1C(=O)c2ccccc2C1=O | -2.81
COc1ccc(-n2c(N)c(C(=O)NCc3ccco3)c3nc4ccccc4nc32)cc1 | 2.86
Cc1cccc(C(=O)Nc2cccc(C(=O)Nc3cc(C)ccn3)c2)c1 | 7.29
CC(=O)c1ccc(N2CCC(c3cc(-c4ccc(Cl)cc4Cl)n[nH]3)CC2)c([N+](=O)[O-])c1 | -3.28
O=C(OC1CCN(c2ncc(C(F)(F)F)cc2Cl)CC1)c1ccccc1 | 3.57
COc1ccc(/C=C/C(=O)O)cc1Cl | 8.47
CCOC(=O)N/N=C\c1ccc(C)s1 | -6.9
COc1cc(NC(=O)Cn2ccsc2=N)c(C)cc1[N+](=O)[O-].Cl | -13.6
Cn1c(-c2sccc2OCc2ccccc2)n[nH]c1=S | 2.09
